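Following 48 hours of exposure in 96-well plates, responses at five concentrations were used to interpolate endpoints linearly. GI50 marks 50% less growth.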 Some entries of the source have several records that differ or are many. They are shown here; other results are not. An entry can have further records. For part of these data: Records of one sample usually come from different ranges of test concentrations, which the source does not state; a value can be the end of its range. Marks in square brackets tell the records apart. A, B and so on number the origins entry by entry. For part of these data: Values that stand side by side are repeats in other runs, samples, wells, individuals or studies.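 TGI: concentration producing complete growth inhibition.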
Columns and labels:
Assay in all cases: inhibition of tumour cell growth, NCI panel, 48 h
PC-3 prostate = tested on: PC-3 prostate
HOP-92 NSCLC = tested on: HOP-92 NSCLC
786-0 renal = tested on: 786-0 renal
SF-295 CNS = tested on: SF-295 CNS
HCC-2998 colon = tested on: HCC-2998 colon
TK-10 renal = tested on: TK-10 renal
OVCAR-5 ovarian = tested on: OVCAR-5 ovarian
SNB-75 CNS = tested on: SNB-75 CNS
UACC-257 melanoma = tested on: UACC-257 melanoma
KM12 colon = tested on: KM12 colon
BT-549 breast = tested on: BT-549 breast
UO-31 renal = tested on: UO-31 renal
HOP-62 NSCLC = tested on: HOP-62 NSCLC
SK-OV-3 ovarian = tested on: SK-OV-3 ovarian
U251 CNS = tested on: U251 CNS
RXF-631 renal = tested on: RXF-631 renal
HCT-116 colon = tested on: HCT-116 colon
RPMI-8226 leukemia = tested on: RPMI-8226 leukemia
NCI/ADR-RES ovarian = tested on: NCI/ADR-RES ovarian
HCT-15 colon = tested on: HCT-15 colon
COLO 205 colon = tested on: COLO 205 colon

## CCc1c(C)c(C#N)c(=S)n(C2OC(COC(C)=O)C(OC(C)=O)C(OC(C)=O)C2OC(C)=O)c1C (stereo not given)
PC-3 prostate
  GI50: > 100 µM [sample A, 1 test] and 9.94 µM [sample B, 1 test]
HOP-92 NSCLC
  TGI: > 100 µM [sample A, 1 test] and 9.07 µM [sample B, 1 test]
786-0 renal
  GI50: > 100 µM [sample A, 1 test] and 7.18 µM [sample B, 1 test]

## NCCCn1c2c(c3ccc([N+](=O)[O-])cc3c1=O)C(=O)c1cc(Br)ccc1-2
HOP-92 NSCLC
  GI50: 1.84 nM and 66.2 nM
  TGI: 9.24 nM and 1.92 µM
SF-295 CNS
  TGI: 551 nM and 36.6 nM
HCC-2998 colon
  TGI: 392 nM and 37.5 nM

## CC(C)(C)c1cc(NC(=O)Cc2ccc(-c3cnc4cc(-c5cnn(CCN6CCOCC6)c5)ccc4n3)cc2)no1
TK-10 renal
  GI50: 1.22 µM, 807 nM [sample A, 1 test] and 51.5 nM [sample B, mean of 2 tests]
OVCAR-5 ovarian
  GI50: 1.61 µM, 703 nM [sample A, 1 test] and 101 nM [sample B, mean of 2 tests]
SNB-75 CNS
  GI50: 49.9 nM, 480 nM [sample A, 1 test] and 22.1 nM [sample B, mean of 2 tests]
UACC-257 melanoma
  GI50: 1.23 µM, 2.07 µM [sample A, 1 test] and 142 nM [sample B, mean of 2 tests]
KM12 colon
  GI50: 12.2 nM, 22.8 nM [sample A, 1 test] and 1.71 nM [sample B, mean of 2 tests]
BT-549 breast
  GI50: 959 nM, 1.22 µM [sample A, 1 test] and 94.3 nM [sample B, mean of 2 tests]
UO-31 renal
  TGI: 50 µM [sample A, 1 test] and 1.3 µM [sample B, 1 test]
HOP-62 NSCLC
  GI50: 796 nM, 882 nM [sample A, 1 test] and 64.2 nM [sample B, mean of 2 tests]
HCC-2998 colon
  GI50: 1.22 µM, 3.58 µM [sample A, 1 test] and 251 nM [sample B, mean of 2 tests]

## COc1ccc(/C=C\c2cc(OC)c(OC)c(OC)c2)cc1OC(=O)NCCN(C)C
SK-OV-3 ovarian
  TGI: 858 nM and > 53.6 µM
OVCAR-5 ovarian
  TGI: 140 nM and > 100 µM
KM12 colon
  TGI: 7.1 nM and > 100 µM
PC-3 prostate
  TGI: 123 nM and > 100 µM
U251 CNS
  TGI: 10.2 nM and > 36.9 µM
RXF-631 renal
  TGI: 18.5 nM and 22.9 µM
HCT-116 colon
  TGI: 46.4 nM and > 100 µM
RPMI-8226 leukemia
  TGI: 188 nM and 15.3 µM
NCI/ADR-RES ovarian
  TGI: 0.173 nM and 46.5 µM
SF-295 CNS
  TGI: 0.915 nM and 66.8 µM
HCT-15 colon
  TGI: 11 nM and > 100 µM

## CON(C)C(=O)N1N=C(c2cc(F)ccc2F)SC1(CCCN)c1ccccc1 (stereo not given)
UACC-257 melanoma
  GI50: 480 nM [sample A, 1 test] and < 10 nM [sample B, 1 test]
HOP-92 NSCLC
  GI50: 98.6 nM [sample A, 1 test] and 1.18 µM [sample B, 1 test]
COLO 205 colon
  TGI: 17.8 µM [sample A, 1 test] and 927 nM [sample B, mean of 2 tests]

From PubChem BioAssay (NCI)
